Source: a compilation of properties of binary mixtures (doi:10.1021/je700076t)
The densities may have been worked out from excess volumes.

Assay: xn = mol fraction of the nth substance listed
Settings: 101 kPa

CCCC[n+]1ccn(C)c1.COS(=O)(=O)[O-] + CCCC[n+]1ccn(C)c1.F[B-](F)(F)F
mass density [kg/m3]
Settings	298.15 K	299.15 K	301.15 K	302.15 K	303.15 K	304.15 K	305.15 K	307.15 K	308.15 K
x2 = 0	1207.9	1207.3	1206	1205.3	–	1204	1203.3	1202	1201.4
x2 = 0.1209	1207.4	1206.7	–	1204.7	1204	–	1202.7	–	1200.6
x2 = 0.2166	1206.9	1206.3	–	–	1203.6	1202.9	1202.2	1200.8	1200.1
x2 = 0.3057	1206.4	–	1204.3	1203.7	1203	1202.3	1201.6	1200.3	1199.6
x2 = 0.406	1205.8	1205.1	1203.8	1203.1	1202.4	1201.7	1201	1199.7	1199
x2 = 0.4358	1205.6	1205	1203.6	1202.9	1202.2	1201.5	1200.9	1199.5	1198.8
x2 = 0.5118	1205.2	1204.5	1203.1	1202.4	1201.7	1201.1	1200.4	1199	–
x2 = 0.5412	1205	1204.3	1202.9	1202.2	1201.5	1200.9	–	1198.8	1198.1
x2 = 0.6026	1204.5	–	1202.5	1201.8	1201.1	1200.4	1199.7	1198.3	1197.6
x2 = 0.648	1204.4	1203.6	1202.2	–	–	1200.1	–	1198.1	1197.3
x2 = 0.6934	–	1203.1	1201.7	1201.1	–	1199.7	–	1197.6	1196.9
x2 = 0.7813	1203.2	1202.5	1201.1	1200.4	–	1199.1	1198.4	1197	1196.3
x2 = 0.9005	1202.2	–	–	1199.5	1198.8	1198.1	1197.4	1196	1195.3
x2 = 0.9363	1202	–	1199.8	–	1198.4	1197.7	–	1195.7	–
x2 = 0.9683	–	1201.1	1199.7	–	1198.3	1197.6	1196.9	1195.7	1194.8

CCCC[n+]1ccn(C)c1.F[B-](F)(F)F + CCCCCC[n+]1ccn(C)c1.F[B-](F)(F)F
x1 = 1
Settings	mass density [kg/m3]
298.15 K	1201.7
299.15 K	1200.8
302.15 K	1198.7
303.15 K	1198
304.15 K	1197.3
305.15 K	1196.6
307.15 K	1195.2
308.15 K	1194.5

CCCC[n+]1ccn(C)c1.F[B-](F)(F)F + CCCC[n+]1ccn(C)c1.COS(=O)(=O)[O-]
x1 = 1
Settings	mass density [kg/m3]
298.15 K	1201.4
299.15 K	1200.7
302.15 K	1198.6
303.15 K	1197.9
304.15 K	1197.2
305.15 K	1196.6
307.15 K	1195.2
308.15 K	1194.5

CCCC[n+]1ccn(C)c1.F[P-](F)(F)(F)(F)F + CCCC[n+]1ccn(C)c1.F[B-](F)(F)F
mass density [kg/m3]
Settings	298.15 K	299.15 K	301.15 K	302.15 K	303.15 K	304.15 K	305.15 K	307.15 K	308.15 K
x1 = 0.0568	–	–	1209.5	1208.9	–	–	1206.8	1205.3	1204.6
x1 = 0.1034	1220.2	1219.5	–	1217.4	1216.7	1215.9	1215.2	1213.8	1213.1
x1 = 0.2095	1239.1	1238.3	1236.9	1236.2	1235.5	–	1234	1232.6	1231.8
x1 = 0.3012	1254.8	1254	1252.6	1251.9	1251.2	1250.4	–	–	1247.5
x1 = 0.3825	1268.7	1267.9	1266.5	–	1265	1264.2	1263.5	1262	1261.2
x1 = 0.4647	1282.6	–	1280.3	1279.6	–	1278.1	1277.3	1275.8	–
x1 = 0.4999	1288.3	1287.5	1286.1	1285.3	1284.6	1283.8	–	1281.5	1280.7
x1 = 0.5974	1304.5	1303.5	1302.1	1301.4	1300.6	1299.8	1299	1297.5	1296.7
x1 = 0.6928	1319.8	1318.9	1317.4	1316.6	–	1315	1314.2	1312.6	–
x1 = 0.833	1342.3	1341.4	1339.9	1339.1	–	1337.5	1336.6	–	1334.2
x1 = 0.8877	1350.7	–	1348.2	1347.4	1346.6	–	–	1343.3	1342.5
x1 = 0.945	1359.4	1358.5	1357	1356.2	1355.4	1354.5	1353.7	–	–
x1 = 1	1367.9	1366.9	–	1364.7	1363.9	–	1362.2	1360.5	1359.7

CCCCCC[n+]1ccn(C)c1.F[B-](F)(F)F + CCCC[n+]1ccn(C)c1.F[B-](F)(F)F
mass density [kg/m3]
Settings	298.15 K	299.15 K	301.15 K	302.15 K	303.15 K	304.15 K	305.15 K	307.15 K	308.15 K
x2 = 0	–	1144.5	1143.1	1142.4	1141.7	1141.1	1140.4	1139	1138.3
x2 = 0.054	1148.1	1147.3	1145.9	–	–	1143.8	1143.2	1141.8	1141.1
x2 = 0.103	1150.6	1149.8	1148.4	–	1147	1146.3	1145.7	1144.3	1143.6
x2 = 0.2076	1155.9	1155	–	1152.9	1152.2	1151.6	1150.9	1149.5	1148.8
x2 = 0.3602	1163.6	1162.8	1161.4	1160.7	1160	1159.4	1158.7	1157.3	–
x2 = 0.4383	1168	1167.1	–	1165	–	1163.6	1162.9	1161.5	1160.8
x2 = 0.5047	1171.7	1170.9	1169.5	–	1168.1	1167.4	1166.7	1165.3	1164.6
x2 = 0.555	1174.6	1173.8	1172.4	1171.7	1171	1170.3	1169.6	1168.2	1167.5
x2 = 0.598	1177	1176.1	1174.7	1174	1173.3	1172.6	–	1170.5	1169.8
x2 = 0.809	1189.5	1188.7	–	1186.6	1185.9	1185.2	1184.5	1183.1	1182.4
x2 = 0.8917	1194.6	–	1192.3	1191.6	1190.9	1190.3	1189.6	1188.2	1187.5

CC[n+]1ccn(C)c1.F[B-](F)(F)F + CCCCCC[n+]1ccn(C)c1.F[B-](F)(F)F
x1 = 1
Settings	mass density [kg/m3]
299.15 K	1278.8
302.15 K	1276.5
304.15 K	1274.9
305.15 K	1274.2
307.15 K	1272.7

CCCC[n+]1ccn(C)c1.F[B-](F)(F)F + CCCC[n+]1ccn(C)c1.F[P-](F)(F)(F)(F)F
x2 = 0
Settings	mass density [kg/m3]
299.15 K	1200.6
303.15 K	1198.1
304.15 K	1197.3
305.15 K	1196.6
307.15 K	1195.2

CCCCCC[n+]1ccn(C)c1.F[B-](F)(F)F + CC[n+]1ccn(C)c1.F[B-](F)(F)F
mass density [kg/m3]
Settings	298.15 K	299.15 K	301.15 K	302.15 K	303.15 K	304.15 K	305.15 K	307.15 K	308.15 K
x2 = 0	1145.8	1145.1	1143.7	1143	1142.3	1141.5	1140.8	1139.5	1138.8
x2 = 0.0545	1150.8	1150.1	1148.7	1148.1	1147.3	1146.6	1145.9	1144.5	1143.8
x2 = 0.1196	1157.2	1156.6	–	1154.5	1153.8	1153.1	1152.4	1151	1150.3
x2 = 0.1803	1163.6	1162.9	1161.4	1160.7	1160	1159.3	–	1157.2	1156.5
x2 = 0.3145	1178.4	1177.6	1176.3	1175.6	1174.9	1174.2	1173.5	–	–
x2 = 0.4061	1189.5	1188.8	–	1186.7	1186	1185.3	1184.6	–	1182.5
x2 = 0.446	–	1193.7	1192.3	1191.6	1190.9	1190.2	1189.5	1188.1	1187.4
x2 = 0.4938	–	–	1198.4	–	–	1196.3	1195.6	–	1193.4
x2 = 0.5526	–	1207.5	1206.1	–	1204.7	1204	1203.3	1201.8	1201.1
x2 = 0.6006	–	1214.4	1212.9	1212.2	–	1210.7	1210	1208.5	1207.8
x2 = 0.7059	1230.3	1229.6	1228.1	–	1226.6	1225.9	1225.2	1223.7	1223
x2 = 0.793	1243.7	–	–	1240.7	1240	1239.2	1238.5	1237	–
x2 = 0.8516	1253.3	1252.5	1251	1251.1	1249.5	1248.8	1248	1246.5	1245.8
x2 = 0.9022	–	1260.8	1259.3	1258.6	–	–	1256.4	1254.9	–
